Inconclusive means that the source gave no clear call. Such entries were picked first, then a sample of the others. Activity calls are given as the source filed them.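 The calls were made as follows: active = thallium entry rate above the same plate's blocked-transporter control wells by more than 3 SD; inconclusive = the two repeat wells disagree; inactive = the rest.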
assay: FluoZin2 fluorescence counter-screen of MLSMR hits on KCC2-expressing cells (AID 1714); conditions: HEK293-KCC2 + bumetanide/ouabain, at 10 µM, hits give high values;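 also: raw slope of fluorescence over initial fluorescence between 10 and 20 s after thallium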
How it was run: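 Test system: HEK cells expressing the K-Cl cotransporter KCC2 | Compound: One dose, 10 µM, 0.1% DMSO | Replication: Duplicates | Evaluation: Normalized thallium flux slope | Detection: FluoZin2-AM (0.5 µM) fluorescence, 480 nm ex/540 nm em, 1 Hz kinetic imaging | Incubation: Overnight culture 37 °C, dye loading 48 min | Reagent: Thallium stimulus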

Row | SMILES | normalized thallium flux
1 | COc1ccc(S(=O)(=O)N(CCc2ccccc2)CC(=O)O)cc1Cl | inconclusive: 0.008
2 | Cc1noc(/C=C/c2ccco2)c1S(=O)(=O)N1CCC(C(=O)N2CCc3ccccc3C2)CC1 | inactive: 0.00457
3 | COc1ccc(Nc2cc(C)c3ccc(O)cc3n2)cc1 | inactive: 0.00547
4 | COCCNC(=O)CN(c1cc(C(F)(F)F)ccc1Cl)S(C)(=O)=O | inconclusive: 0.0053
5 | CCCCC(NC(C)=O)c1nc2ccccc2n1CCCC (stereo not given) | inactive: 0.00414
6 | C/C(N)=C(/C#N)C(=O)CSc1cc(C)c2cc(C)cc(C)c2n1 | inactive: 0.00565
7 | Cc1cc([N+](=O)[O-])cc(/C=N/n2c(C)nc3ccccc3c2=O)c1O | inconclusive: 0.00581
8 | Cc1nonc1NC(=O)CSc1ccc(-c2ccccc2)nn1 | inactive: 0.00528
9 | COc1ccc2nc(NNC(=O)C3COc4ccccc4O3)sc2c1 (stereo not given) | active: 0.0198
10 | O=C(CSc1ccc(-c2ccccc2)nn1)c1ccccc1 | inconclusive: 0.00529
11 | Cc1ccc(CCNC(=O)C2CCC(CNc3c(N4CCCC4)c(=O)c3=O)CC2)cc1 (stereo not given) | inconclusive: 0.00945
12 | CCCCCSc1nnc(-c2cc(Br)ccc2N)c(=O)[nH]1 | inconclusive: 0.00802
13 | CN1/C(=C/C(=O)c2nc(S(C)(=O)=O)ncc2Cl)C(C)(C)c2ccccc21 | inconclusive: 0.00528
14 | O=C(CCc1ccccc1)c1c(O)cc(O)cc1O | inactive: 0.00511
15 | COc1cc(-c2c(C#N)c(=O)[nH]c3c2c(C)nn3-c2ccccc2)ccc1O | inactive: 0.00408

From PubChem BioAssay
